Test results published in the BET-seq Pho4 binding data (Le et al. 2018).
This is one part of the list. Values were computed here from the reads of four pooled replicates and scatter widely.

Molecular target: T1, Pho4 (S. cerevisiae) (UniProt P07270)
T1 sequence: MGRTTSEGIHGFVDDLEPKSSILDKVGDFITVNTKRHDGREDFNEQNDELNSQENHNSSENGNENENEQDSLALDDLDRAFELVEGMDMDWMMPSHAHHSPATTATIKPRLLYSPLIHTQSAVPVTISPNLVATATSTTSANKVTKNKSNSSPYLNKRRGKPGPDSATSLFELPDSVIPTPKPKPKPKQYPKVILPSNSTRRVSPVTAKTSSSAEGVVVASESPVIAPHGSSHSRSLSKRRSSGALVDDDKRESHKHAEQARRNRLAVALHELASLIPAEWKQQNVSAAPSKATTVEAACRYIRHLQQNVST
Test: relative binding free energy (BET-seq); higher = weaker binding
Conditions: reference: library average

Row | Sequence | relative binding free energy [kcal/mol]
1 | TTTTTCACGTGGGGCC | 0.13
2 | TATAACACGTGTGTCG | -0.11
3 | TTGTTCACGTGGATTG | 0.32
4 | ACAGGCACGTGGCTGG | -0.17
5 | CATAACACGTGGTAGG | -0.07
6 | TTTAGCACGTGAGGGG | 0.13
7 | GGTGGCACGTGTCCGG | -0.15
8 | TTGGTCACGTGGGGCA | -0.09
9 | TTTGACACGTGGGTCC | 0.06
10 | ATTTTCACGTGTTAGA | 0.35
11 | GAAGACACGTGAAGGG | 0.31
12 | TGACGCACGTGTAAGG | -0.08
13 | CATAGCACGTGGGTGA | -0.22
14 | TGTATCACGTGTCGAA | 0.13
15 | TTGTACACGTGTAAAA | 0.33
16 | TGGCTCACGTGCGGAT | 0.2
17 | GTGTGCACGTGTCGTC | 0.09
18 | TGGCTCACGTGTGTGC | 0.24
19 | CGTTTCACGTGTCGAT | 0.24
20 | GGTGTCACGTGACAGT | 0.11
21 | CATGTCACGTGGTTGG | 0.12
22 | TTATACACGTGTGAGA | 0.05
23 | TGCGTCACGTGTAGCG | 0
24 | GTTTGCACGTGTCCGT | 0.07
25 | TGGTCCACGTGGGTGT | -0.12

Row | Sequence | relative binding free energy [kcal/mol]
26 | TATATCACGTGCGTGA | 0.14
27 | GTATTCACGTGGGGAC | 0.21
28 | GTTGTCACGTGGCTGG | 0.05
29 | GTGTGCACGTGTGCCG | -0.01
30 | GGTAGCACGTGGCGTG | -0.18
31 | AATAACACGTGTGGGT | 0.08
32 | TAAGACACGTGACGGT | 0.22
33 | TGAGGCACGTGCGCTG | -0.22
34 | TGTAGCACGTGCTGGT | -0.08
35 | AGGATCACGTGGAGTA | 0.08
36 | TAGGTCACGTGAATAC | 0.44
37 | GTCTGCACGTGTGTGA | 0.1
38 | GTGTTCACGTGTAATT | 0.34
39 | TGGGTCACGTGCAAGT | 0.09
40 | ATTTTCACGTGGAATT | 0.26
41 | TACTGCACGTGTTTTA | 0.01
42 | TATATCACGTGGTATT | 0.04
43 | TATATCACGTGTTTCG | 0.09
44 | TTGATCACGTGATGTC | 0.36
45 | CAATACACGTGGTTTG | 0.01
46 | AGTGGCACGTGGATGT | -0.01
47 | TAGCGCACGTGTTGAG | -0.05
48 | TCTTCCACGTGGGTGG | -0.14
49 | ATCCGCACGTGTGGTG | -0.06
50 | GGGGACACGTGCGATT | 0.14

Row | Sequence | relative binding free energy [kcal/mol]
51 | TGTGTCACGTGAGTCG | 0.32
52 | ACTGTCACGTGTGAGG | 0.18
53 | TTTGCCACGTGGTTGT | 0.04
54 | TGGTACACGTGAGAAG | 0.28
55 | GATTTCACGTGGGGTA | 0.23
56 | ACATTCACGTGATTGG | 0.51
57 | GTACGCACGTGTAGGG | -0.05
58 | GTATTCACGTGAAAGG | 0.43
59 | TTTATCACGTGTAGAA | 0.12
60 | TTTTACACGTGTGATA | 0.22
61 | GATTTCACGTGTTTGT | 0.37
62 | GGTTACACGTGAGGCT | 0.37
63 | GGATTCACGTGGGGAG | 0.19
64 | TACGGCACGTGGAATT | 0.12
65 | GTATTCACGTGATCGG | 0.29
66 | TGGTCCACGTGGAATT | 0.15
67 | TTGGACACGTGAGGGC | 0.15
68 | AGAGTCACGTGATATT | 0.21
69 | GGTGTCACGTGGAATA | 0.17
70 | AGGTGCACGTGTAATA | 0.11
71 | ATGGACACGTGGGCTA | -0.2
72 | TGCGACACGTGGGTTT | -0.08
73 | TATTGCACGTGCTTGG | 0.02
74 | CGGGGCACGTGGTATA | -0.19
75 | ATATTCACGTGGCAGT | 0.12

Row | Sequence | relative binding free energy [kcal/mol]
76 | AGGGGCACGTGTTGAG | -0.08
77 | GATTGCACGTGTAGTA | 0.13
78 | AGGGTCACGTGTTGTT | 0.16
79 | AGTGGCACGTGCTTAG | -0.31
80 | AGCGTCACGTGAGTTA | 0.31
81 | GGTAGCACGTGTGGTC | 0.07
82 | GTTTGCACGTGAGTTC | 0.21
83 | AAGGGCACGTGTTTGG | -0.03
84 | AGGTTCACGTGTTGGA | 0.2
85 | GTGTCCACGTGTAGTT | 0.12
86 | CTTAACACGTGGGAGT | -0.03
87 | GGTTGCACGTGCGCTT | 0
88 | TGGGGCACGTGGTGGG | -0.14
89 | ATTAGCACGTGGGGAA | -0.21
90 | CGGCGCACGTGAGGTG | 0.17
91 | GTGGTCACGTGTATTG | 0.12
92 | TTTCACACGTGTTCTG | 0.21
93 | ATTTGCACGTGCGATT | 0.05
94 | AATCGCACGTGTGATT | 0.1
95 | TTGTGCACGTGGAGTA | -0.01
96 | GGTGTCACGTGAGAGA | 0.37
97 | CTTGACACGTGGTTCG | 0.1
98 | ATAATCACGTGTTTGT | 0.12
99 | ATGTGCACGTGGGAGG | -0.2
100 | AGTCGCACGTGGTTTA | -0.14

Row | Sequence | relative binding free energy [kcal/mol]
101 | TTTAACACGTGAGGAT | 0.13
102 | TTTTGCACGTGCATCT | -0.08
103 | TTGATCACGTGATGAT | 0.47
104 | GAGGACACGTGGGAGC | 0.04
105 | ATGTACACGTGGTCTT | 0.02
106 | CTTGTCACGTGTCTGG | 0.12
107 | TATTACACGTGTGGTA | 0.06
108 | GATGGCACGTGCCTGG | -0.06
109 | TTTGTCACGTGTGCTT | 0.18
110 | GGTTACACGTGGGAGT | 0.1
111 | AAATTCACGTGTTTAA | 0.19
112 | TTTGTCACGTGGAGCT | 0.18
113 | GGGTTCACGTGGGCCG | 0.14
114 | GCGGTCACGTGTTTGT | 0.13
115 | GCGCGCACGTGTATGG | -0.01
116 | TCGAACACGTGGTGAG | 0.13
117 | TAGTGCACGTGGGCTT | -0.12
118 | GTGTACACGTGAACGG | 0.26
119 | TGTTACACGTGTACTT | 0.12
120 | CAGCTCACGTGTGTGT | 0.36
121 | ATTTGCACGTGTCGAT | -0.05
122 | TTTTTCACGTGGGTGT | 0.24
123 | GGGTACACGTGTTGGC | 0.2
124 | CCGGGCACGTGTGTAT | -0.01
125 | TTTGGCACGTGTAGAC | -0.14

Row | Sequence | relative binding free energy [kcal/mol]
126 | ATATGCACGTGCTTTT | -0.13
127 | CTATTCACGTGATCGT | 0.27
128 | AAGTGCACGTGGTATG | -0.09
129 | GGTTTCACGTGCCTTG | 0.29
130 | TTTATCACGTGAGCGA | 0.23
131 | GAGGGCACGTGTGGCG | 0.03
132 | TACGGCACGTGAAGTT | 0.3
133 | TTGTTCACGTGTGAAC | 0.26
134 | TCGGACACGTGTGTAT | -0.04
135 | AAGAACACGTGGGTGG | 0.02
136 | GTATGCACGTGTGCAG | -0.05
137 | ATCTGCACGTGGGGTA | -0.31
138 | TTTAGCACGTGGTGCT | -0.28
139 | TTTCTCACGTGGAAGT | 0.22
140 | GGGTGCACGTGTTTCA | 0.03
141 | GTAGGCACGTGACTTT | 0.11
142 | GGGGACACGTGGCAGT | -0.06
143 | ATGGGCACGTGGTACG | -0.22
144 | AGAGACACGTGTGTGT | -0.02
145 | GCTCGCACGTGGGTGT | -0.24
146 | TGTGTCACGTGAATGC | 0.36
